In publication PMC9911399, “Two distinct binding modes provide the RNA-binding protein RbFox with extraordinary sequence specificity”:
Numbering of substitutions follows the chain as printed; changes in the protein carry UniProt numbers. This is one part of the list.

T1: RBFOX1 RRM (Homo sapiens, UniProt Q9NWB1 109-208)
T1 sequence: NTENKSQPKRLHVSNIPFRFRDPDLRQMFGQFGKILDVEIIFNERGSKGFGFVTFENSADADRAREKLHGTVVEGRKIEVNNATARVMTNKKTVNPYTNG

B1: CUGUAGG (DNA:RNA)
RNA: GGGAGACCGGAAUUCAGAUUGUCCCUGUAGGUUAAAUCCCGUCGUAGCCACCA
DNA 1: CAATCTGAATTCCGGTCTCCC
DNA 2: TGGTGGCTACGACGGGATT
B2: UGGCUGA (DNA:RNA)
RNA: B1 RNA with C25U, U26G, U28C, A29U, G31A
DNA 1: CAATCTGAATTCCGGTCTCCC
DNA 2: TGGTGGCTACGACGGGATT
B3: AGUUGAG (DNA:RNA)
RNA: B1 RNA with C25A, U26G, G27U, A29G, G30A
DNA 1: CAATCTGAATTCCGGTCTCCC
DNA 2: TGGTGGCTACGACGGGATT
B4: AUCUAUA (DNA:RNA)
RNA: B1 RNA with C25A, G27C, G30U, G31A
DNA 1: CAATCTGAATTCCGGTCTCCC
DNA 2: TGGTGGCTACGACGGGATT
B5: GGCUAGU (DNA:RNA)
RNA: B1 RNA with C25G, U26G, G27C, G31U
DNA 1: CAATCTGAATTCCGGTCTCCC
DNA 2: TGGTGGCTACGACGGGATT
B6: GAUCAGG (DNA:RNA)
RNA: B1 RNA with C25G, U26A, G27U, U28C
DNA 1: CAATCTGAATTCCGGTCTCCC
DNA 2: TGGTGGCTACGACGGGATT
B7: CGCUGAA (DNA:RNA)
RNA: B1 RNA with U26G, G27C, A29G, G30A, G31A
DNA 1: CAATCTGAATTCCGGTCTCCC
DNA 2: TGGTGGCTACGACGGGATT
B8: UUCAGCC (DNA:RNA)
RNA: B1 RNA with C25U, G27C, U28A, A29G, G30C, G31C
DNA 1: CAATCTGAATTCCGGTCTCCC
DNA 2: TGGTGGCTACGACGGGATT
B9: CUUUCGG (DNA:RNA)
RNA: B1 RNA with G27U, A29C
DNA 1: CAATCTGAATTCCGGTCTCCC
DNA 2: TGGTGGCTACGACGGGATT

Biological target: T1, RBFOX1 RRM
Assay: EMSA; HiTS-Eq, 1 nM pool, 10 min; buffer printed only for the single-RNA assays: 10 mM Tris pH 7.5, 150 mM NaCl, 3.4 mM EDTA, 0.001% NP-40, 30 C
Settings: tags: His6 N-terminal (pET28a); label: 5' 32P
How it was run: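 Purified RbFox RRM (wild type or mutant) was equilibrated for 10 min in 50 µL with 1 nM of a 5′-radiolabelled pool of RNA with 7 randomized nucleotides, its flanks annealed to DNA oligonucleotides, across increasing protein concentrations. Free RNA was separated by 8% native PAGE, excised, reverse-transcribed, PCR-barcoded and sequenced on an Illumina HiSeq 2500. Relative association constants came from read-count changes of each variant against the control reaction, normalised to the cognate motif.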

Binder | binding signal
B1 | 0.00936 KA relative to UGCAUGU
B2 | 0.036 KA relative to UGCAUGU
B3 | 0.014 KA relative to UGCAUGU
B4 | 0.00079 KA relative to UGCAUGU
B5 | 0.0239 KA relative to UGCAUGU
B6 | 0.0103 KA relative to UGCAUGU
B7 | 0.0132 KA relative to UGCAUGU
B8 | 0.0103 KA relative to UGCAUGU
B9 | 0.0104 KA relative to UGCAUGU
